Values marked as one replicate rest on one cluster of the flow cell; about a third of the high ones do not repeat.
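Also: ATP exposure 15 min at 22 °C before imaging.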

The data set concerns ATP. Nature of the data set: switch fluorescence ratio, 500 uM ATP over buffer (Cy3 cluster intensity, sum of 5 cycles each) (fold (ratio)); higher = stronger signal-on switching upon ATP binding; sequences stand for … in TCGTCGGCAGCGTCAGATGTGTATAAGAGACAGTTTTTTTTTTTTTTTTTTTTTTTTT…TC. The settings on record: aptamer strand: ATP DNA aptamer (quencher-CACCTGGGGGAGTATTGCGGAGGAAGG + anchor), 100 nM annealed; ATP concentration: 500 uM; one replicate. Put shortly: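 For every switch-domain sequence, the fluorescence ratio is the mean of per-cluster values, each being summed target-cycle Cy3 intensity over summed buffer-cycle Cy3 intensity. Clusters outside 100-1000 RFU were excluded. On a modified Illumina MiSeq flow-cell, the Cy3-labelled switching-strand clusters were annealed to 100 nM quencher-labelled ATP aptamer, imaged in selection buffer and then after 15 min with 500 uM ATP at 22 °C. Five such cycles were run, with NaOH stripping and re-annealing between them.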
Consider TGACCGGGAT, for which the switch fluorescence ratio was determined as 1.07.
The value for TGACGAATGG was 1.02; that for CCGGGCCCTT was 1.02; that for GCCCTGTACG was 1.
As to TCGTGCGTGG, the switch fluorescence ratio amounted to 0.959.
CTAGAATCCA: the switch fluorescence ratio was 0.955.
Turning to ATCTCATTCC, the switch fluorescence ratio amounted to 1.18.
Consider GCGTAATTGT, for which the switch fluorescence ratio came to 1.
The value for TTCTGAGGAG was 0.989.
As for CTAGGGGTTA, the switch fluorescence ratio was 0.969.
TTCCTACAG: the switch fluorescence ratio came out at 1.11.
The value for CGCTTGTCTG was 1.01; that for ACGGGCGCTG was 1.03; that for GTCTCTTCTT was 1.04.
With TATTCAGCAT, the switch fluorescence ratio is 1.04.
With TCAAATTCTA, the switch fluorescence ratio was 0.923.
As for TCTCCGGCGT, the switch fluorescence ratio was 1.81.
On to CCACCAAGTT, for which the switch fluorescence ratio amounted to 1.13.
Take GCAGCCCAAT: the switch fluorescence ratio was found to be 1.22.
With TCGCGGGGTA, the switch fluorescence ratio is 1.04.
In the case of GTTGCTGCTG, the switch fluorescence ratio is 0.989.
AACCGTGGA: the switch fluorescence ratio amounted to 1.03.
As for CTAGCGAACG, the switch fluorescence ratio worked out at 1.07.
Take TAAAGCTTGC: the switch fluorescence ratio was 1.07.
For the sequence CGGCTATG, the switch fluorescence ratio amounted to 1.01.
Regarding TGCAAACCAG, the switch fluorescence ratio was 1.01.
The value for GTAATTCGGA was 1.03; that for ACGCCCGTTT was 1.06.
For GCTCATCGTT, the switch fluorescence ratio is 0.984.
In the case of GGGGAACCCT it was 0.981.
In the case of TACTTCCACG it was 1.4; in that of GTGGTCAAA, 0.987; in that of TGACAGTCTT, 1.01.
In the case of TTAAGCCGGG, the switch fluorescence ratio worked out at 1.04.
For the sequence TCAGGATTTA, the switch fluorescence ratio is 1.07.
In the case of TTAGGTGCCC, the switch fluorescence ratio is 1.04.
As for GACTGGCCAT, the switch fluorescence ratio is 1.03.
TAACTAAATG: the switch fluorescence ratio turned out to be 0.992.
Regarding GTTAAAGTTA, the switch fluorescence ratio was 1.01.
GCCTTACTAG: the switch fluorescence ratio is 1.08.
For the sequence CTCGAATTAA, the switch fluorescence ratio turned out to be 1.04.
Take CCGATACAAG: the switch fluorescence ratio was found to be 2.82.
For the sequence GTACGTAAGT, the switch fluorescence ratio came to 1.09.
As to CAGCTGCCTT, the switch fluorescence ratio is 1.02.
The value for TGCAAATCA was 1.26; that for GAGTGTTTGT was 0.949; that for AGAGATCTGT was 0.968.
Regarding AACTTCCGA, the switch fluorescence ratio was 2.58.
Turning to ATCTCTATAG, the switch fluorescence ratio is 1.01.
In the case of CAGGAAAAGA, the switch fluorescence ratio is 1.
Regarding TATAAAACGC, the switch fluorescence ratio came to 1.05.
Regarding GAAGGTTCGC, the switch fluorescence ratio worked out at 1.05.
With AGGGTACCT, the switch fluorescence ratio amounted to 1.19.
With AAGGTTCCGA, the switch fluorescence ratio was found to be 1.02.
Consider AAGGTCGAGG, for which the switch fluorescence ratio is 1.
With AGCGGACCCC, the switch fluorescence ratio was 1.1.
The value for AACTCTACAC was 1.16; that for TACGTTCTAG was 0.969.
For CCTAGTAC, the switch fluorescence ratio amounted to 1.12.
For TATTAAGATG, the switch fluorescence ratio amounted to 1.07.
GGGTGGTGAT: the switch fluorescence ratio turned out to be 1.01.
The value for GAGCTGCCTA was 1; that for GTTATGTGAG was 0.982.
Regarding TGTTACGCCC, the switch fluorescence ratio was determined as 1.05.
Turning to CCGCAGGTGG, the switch fluorescence ratio was found to be 1.23.
As for CTGGAGTTA, the switch fluorescence ratio came to 1.21.
Regarding TTTCATTCGT, the switch fluorescence ratio worked out at 1.04.
For the sequence CTGCCCTCGG, the switch fluorescence ratio worked out at 1.06.
In the case of TATTACGGTC it was 1.04; in that of CAATTTAAAA, 1.02.
CCGAGGTTTG: the switch fluorescence ratio turned out to be 1.19.
In the case of AATCTCGTAC it was 1.03; in that of AAAGTTAGA, 1.
In the case of AAAACATTCC, the switch fluorescence ratio stood at 2.18.
For GGCGTACAAG, the switch fluorescence ratio turned out to be 0.968.
For TAGCTGGGCC, the switch fluorescence ratio was 1.01.
Regarding CGGTGCCGTC, the switch fluorescence ratio was determined as 0.978.
TTGTAGTT: the switch fluorescence ratio was 0.965.
On to TCGGCGCCAG, for which the switch fluorescence ratio came out at 0.972.
On to CCCTAGGATA, for which the switch fluorescence ratio was determined as 1.02.
The value for CGGAAACATG was 0.993; that for CGTTACGGTC was 0.935.
Turning to CCACCGGTCC, the switch fluorescence ratio was determined as 1.31.
As for CCTGAATTGG, the switch fluorescence ratio stood at 1.01.
Consider TACAAGGATT, for which the switch fluorescence ratio came to 0.994.
In the case of CAAAGATAGC, the switch fluorescence ratio amounted to 0.996.
In the case of CTATAAGTGT it was 0.976.
With TGTTAAGAAC, the switch fluorescence ratio was 1.
GGCGATGGCT: the switch fluorescence ratio amounted to 1.01.
Turning to CAGTTACGCG, the switch fluorescence ratio stood at 1.02.
With GTTTTAGGG, the switch fluorescence ratio is 0.998.
Turning to CCAGAATCAA, the switch fluorescence ratio came to 1.05.
As for GTGTCCAAAC, the switch fluorescence ratio turned out to be 1.01.
Take ACGATAGGTT: the switch fluorescence ratio was 1.08.
TCGAGGACTG: the switch fluorescence ratio was found to be 0.938.
Consider TTTAGTATC, for which the switch fluorescence ratio came to 0.978.
Turning to TAAAGGAACT, the switch fluorescence ratio amounted to 1.01.
Consider ATGGGATG, for which the switch fluorescence ratio was found to be 1.
As to TAAAAAAGGC, the switch fluorescence ratio is 1.05.
As to GAGTGCCA, the switch fluorescence ratio was determined as 0.999.
Turning to GGGCAAATCG, the switch fluorescence ratio worked out at 1.04.
Take ATAGACTAT: the switch fluorescence ratio amounted to 0.99.
TTAACTGCA: the switch fluorescence ratio was determined as 1.03.
TGAGTTGGT: the switch fluorescence ratio was 0.992.
In the case of AACTAAAGAA it was 1.01.
In the case of ATTCTTGTCA it was 0.993; in that of AGACAGGGTG, 0.981; in that of TATGTCTGC, 1.
Turning to TGAATGCTGT, the switch fluorescence ratio stood at 1.04.
Take CTTATGTCGA: the switch fluorescence ratio amounted to 0.953.
For ACATATGGTG, the switch fluorescence ratio came to 1.07.
In the case of GTGAGATCTG it was 1.01.
As for GTTATTGGTC, the switch fluorescence ratio stood at 1.01.
The value for AACTCTTTTC was 1.34.
TTTAGAAGAA: the switch fluorescence ratio came out at 1.02.
As for GTCGCGCGGA, the switch fluorescence ratio amounted to 0.972.
In the case of ATGGAGTGCG it was 0.954; in that of AGACCTGTAA, 1.02; in that of CACACTTATA, 1.04.
The value for TATGTAATAT was 0.977; that for GACCTATGTG was 1.02.

Source of the values: the supplement of paper PMC10126150.
